{"source": "paper PMC9641999", "about": "“Cryo-EM samples of gas-phase purified protein assemblies using native electrospray ion-beam deposition” (Faraday discussions, 2022)", "proteins": {"B1": {"name": "GroEL (natural protein)", "chain": "not shown", "notes": "GroEL (chaperonin 60), Sigma Aldrich C7688-1MG; native tetradecamer selected by mass; also called chaperonin 60; source: bought: Sigma Aldrich (C7688-1MG), reconstituted from lyophilized powder; desalted into 200 mM ammonium acetate; copies: 14"}}, "molecular_target": "the molecule itself", "assay": "native MS; non-activating native electrospray on a Q Exactive UHMR; 200 mM ammonium acetate pH 6.9; 5 μM ADH, 10 μM β-gal, 8 μM ferritin, 5 μM GroEL (concentrations of the most abundant oligomers)"}
{"protein": "B1", "values": [{"measurement": "stoichiometry N", "value": 14}]}
